The record followed here is the supplement of paper PMC7266297.

Each structure is given as a SMILES string. Where a name gives a salt, the structure may show the parent alone. The list shows a part of the results. Single values are uncertain, as repeats are few or missing.

In test [1] the test system is KB-3-1. Briefly: growth inhibition relative to DMSO control (SRB); cervical cancer cells: KB-3-1 is the parent and KB-V1 overexpresses MDR1; SRB is the sulforhodamine B stain; higher = more growth inhibition. The following applies: 1 µM; 72 h.
Test [2] concerns KB-V1. The test is described as above. To be noted: 1 µM; 72 h.
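Further: Read-out is SRB optical density at 490 nm, with the control being wells given 0.5% DMSO vehicle, and compound added one day after cells were plated.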

In the case of `Cc1ccccc1-n1c(Cn2ncc3c(N)ncnc32)nc2cccc(C)c2c1=O`, the growth inhibition is below 0% in test [1] and 36.4% in test [2].

With `CN1CCCCC1Cn1cc(C(=O)c2cc([N+](=O)[O-])ccc2I)c2ccccc21` (stereo not given), the growth inhibition was found to be 23.8% in test [1] and 20.7% in test [2].

Turning to `[O-][n+]1ccccc1[S-].[O-][n+]1ccccc1[S-].[Zn+2]` [Zinc Pyrithione], the values for the growth inhibition in test [1] and in test [2] were 88.5% and 85.9%, respectively.

In the case of `O=C(NCC1CCOCC1)c1cnc(Nc2ccc(Cl)cc2Cl)nc1C(F)(F)F`, the figures for the growth inhibition in test [1] and in test [2] were 8.73% and 36.3%, respectively.

For the compound `CC(C)(C)c1cc(C=C(C#N)C#N)cc(C(C)(C)C)c1O` [Tyrphostin 9], the growth inhibition came out at 91.5% in test [1] and 89.4% in test [2].

For `CC(O)(CS(=O)(=O)c1ccc(F)cc1)C(=O)Nc1ccc(C#N)c(C(F)(F)F)c1` (stereo not given) [Bicalutamide], the figures for the growth inhibition in test [1] and in test [2] were 34.9% and 45.8%, respectively.

For the compound `O=c1[nH]c2ccc(Cl)cc2c(N[C@@H]2CN3CCC2CC3)c1-c1nc2ccccc2[nH]1`, the growth inhibition in test [1] was found to be 100%; in test [2] it was 82.3%.

As to `CCC1(c2ccc(N)cc2)CCC(=O)NC1=O` (stereo not given) [Aminoglutethimide], the growth inhibition in test [1] came out at 28.9%; in test [2] it was 10.4%.

Take `N[C@@H]1C[C@H]1c1ccccc1` [Tranylcypromine (2-PCPA) HCl]: the results for the growth inhibition in test [1] and in test [2] were 14.1% and 7.14%, respectively.

In the case of `C[C@]12CC[C@H](O)CC1=CC[C@@H]1[C@@H]2CC[C@]2(C)C(=O)CC[C@@H]12` [Dehydroepiandrosterone (DHEA)], the growth inhibition in test [1] was 28.7%; in test [2] it was 7.13%.

On to `Fc1cc(F)c2c(c1)[C@H]1C=CC[C@H]1C(c1cccnc1)N2` (stereo not given in full) [Golgicide A], for which the growth inhibition in test [1] and in test [2] was below 0% each time.

For the compound `CN1CCC(c2c[nH]c3ccc(O)cc23)CC1`, the growth inhibition in test [1] was found to be 23.6%; in test [2], 36.2%.

As for `Cc1cccc(C)c1NC1=NCCCS1` [Xylazine HCl], the growth inhibition in test [1] turned out to be 29.6%; in test [2], 6.38%.

Regarding `CCNC(=O)C[C@@H]1N=C(c2ccc(Cl)cc2)c2cc(OC)ccc2-n2c(C)nnc21`, the values for the growth inhibition in test [1] and in test [2] were 49.5% and 32.4%, respectively.

As for `O=C(O[C@H]1C[C@H]2CC[C@@H](C1)[N+]21CCCC1)C(O)(c1ccccc1)c1ccccc1` [Trospium chloride], the growth inhibition in test [1] came to 25.1%; in test [2] it was 6.38%.

Turning to `Cc1cccc(C(C)c2c[nH]cn2)c1C` (stereo not given) [Medetomidine HCl], the figures for the growth inhibition in test [1] and in test [2] were below 0% and 4.16%, respectively.

For `C=CC[C@]1(O)CC[C@H]2[C@@H]3CCC4=CC(=O)CCC4=C3C=C[C@@]21C` [Altrenogest], the growth inhibition in test [1] amounted to 5.06%; in test [2] it was 0.327%.

For `Cc1ccc(-n2nccn2)c(C(=O)N2CCN(c3nc4cc(Cl)ccc4o3)CC[C@H]2C)c1` [Suvorexant (MK-4305)], the results for the growth inhibition in test [1] and in test [2] were 0.442% and below 0%, respectively.

Regarding `CCOc1ccccc1-n1c(C(C)N2CCN(C(=O)COc3ccc(Cl)cc3)CC2)nc2ccccc2c1=O` (stereo not given) [Erastin], the growth inhibition in test [1] and in test [2] was below 0% each time.

With `COC(=O)C1=CCCN(C)C1` [Arecoline], the growth inhibition is 27.8% in test [1] and 3.73% in test [2].

`COc1ccc(C(=O)N2CCCC2=O)cc1` [Aniracetam]: the figures for the growth inhibition in test [1] and in test [2] were 4.32% and 38%, respectively.

Consider `CC(C)(C)c1cc(C=C(C#N)C#N)cc(Br)c1O`, for which the growth inhibition in test [1] stood at 32.7%; in test [2], 40.4%.

`COc1cc(OC)c(OC)cc1C=O` [Asaraldehyde]: the growth inhibition in test [1] was 31.3%; in test [2] it was 4.26%.

Regarding `CN1CCN(c2nc3ccccc3nc2Cl)CC1`, the growth inhibition in test [1] was below 0%; in test [2], 11.9%.

For the compound `C[C@]12CC[C@H]3[C@@H](CC[C@@]45O[C@@H]4C(O)=C(C#N)C[C@]35C)[C@@H]1CC[C@@H]2O` [Trilostane], the growth inhibition in test [1] was found to be 13%; in test [2] it was 36.5%.

Regarding `CC(=O)O[C@H]1C[C@@H]2CC[C@@H]3[C@H](CC[C@@]4(C)[C@H]3C[C@H]([N+]3(C)CCCCC3)[C@@H]4OC(C)=O)[C@@]2(C)C[C@@H]1[N+]1(C)CCCCC1` [Pancuronium dibromide], the growth inhibition in test [1] was determined as 26%; in test [2], 5.32%.

As to `CC[C@@H]1/C=C/C=C/C[C@H](C)[C@H](O)[C@](C)(O)C(=O)[C@H](C)[C@@H](O)[C@H](C)C(=O)[C@H](C)[C@@H](O)[C@H](C)/C=C/C(=O)O[C@H]2[C@@H](C)[C@@H](CC1)O[C@@]1(CC[C@@H](C)[C@@H](C[C@H](C)O)O1)[C@@H]2C` [Oligomycin A], the results for the growth inhibition in test [1] and in test [2] were 87.8% and 70.5%, respectively.

For the compound `COc1cc(-n2c(=S)[nH]c3ccccc3c2=O)c(Cl)cc1Cl` [Mdivi-1], the growth inhibition in test [1] and in test [2] was below 0% throughout.

Take `C[C@@]12N[C@@H](Cc3ccccc31)c1ccccc12` [(-)-MK 801 Maleate]: the growth inhibition is 3.97% in test [1] and 5.67% in test [2].

As to `CN(C)C(=O)Oc1ccc[n+](C)c1` [Pyridostigmine Bromide], the growth inhibition is 26.2% in test [1] and 11.6% in test [2].
